Source: paper PMC11603075 (Communications Biology, 2024)

Target: T1, KDM4E (Homo sapiens, UniProt B2RXH2)
T1 construct: KDM4E1–337; made in house; host or cells: E. coli
T1 sequence (B2RXH2 1-337): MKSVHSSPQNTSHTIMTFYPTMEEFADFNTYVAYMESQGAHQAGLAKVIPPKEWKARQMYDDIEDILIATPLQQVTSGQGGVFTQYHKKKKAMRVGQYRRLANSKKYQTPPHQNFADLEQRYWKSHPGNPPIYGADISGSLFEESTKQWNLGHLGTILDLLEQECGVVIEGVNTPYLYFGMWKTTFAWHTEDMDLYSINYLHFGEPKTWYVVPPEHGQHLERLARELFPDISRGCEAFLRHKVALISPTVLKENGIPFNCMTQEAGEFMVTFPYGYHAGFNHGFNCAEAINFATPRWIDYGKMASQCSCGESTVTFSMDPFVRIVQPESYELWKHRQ
Test: KDM, RDM and hydroxylation (+16 Da) activities of KDM4E with histone peptide variants by MS
Assay type: biochemical
Conditions: MALDI–TOF or LC–MS, n = 3
Description: Fig. 3 KDM4E-catalysed hydroxylation occurs at Arg-20 on histone H2a peptide. a LC–MS/MS analysis of H2a(1–20) after KDM4E treatment. Two potential hydroxylation sites, R17 and R20, were identified, with the latter more likely (Supplementary Fig. 9). b Peptide variant studies support Arg-20 hydroxylation; specific activities: H2a(1–20), 0.65 nmol min^−1 mg^−1 SD: 0.073; H2a(1–20) with a C-terminal carboxylic acid (indicated with an -OH), no activity; H2a(1–20)R20A, no activity; H2a(1–20)R20K*, no activity; H2a(1–20)R20Kme3*, 0.44 nmol min^−1 mg^−1 SD: 0.04; H2a(1–20)R3me2a*, 0.51 nmol min^−1 mg^−1 SD: 0.05; H2a(1–20)R3A, 0.37 nmol min^−1 mg^−1 SD: 0.002; H2a(1–21)*, 0.65 nmol min^−1 mg^−1 SD 0.02; H2a(1–25, 0.35 nmol min^−1 mg^−1 SD: 0.044; and H2a(10–29), 0.02 nmol min^−1 mg^−1 SD: 0.013. Measurements employed MALDI–TOF MS except when labelled with*, which employed LC–MS (Supplementary Fig. 10 for representative MS data). n = 3 independent assays. c KDM, RDM and hydroxylation (+16 Da) activities of KDM4E are sequence and context dependent. Histone peptides (H2a, H3, H4) and variants (wild type residue in red, replaced with either K, Kme3, R or Rme2a) were incubated with KDM4E and analysed on MALDI–TOF MS. KDM, RDM and hydroxylation (+16 Da) were detected in some but not all peptides (Supplementary Fig. 10 for representative MS data). (−) No mass changes observed. n = 3 independent assays. See Supplementary Table 6 for conditions. TEXT PRINTED IN THE PICTURE: (c) H2a: K/R replacement K: -; K/R replacement Kme3: KDM/ROH; K/R replacement R: ROH; K/R replacement Rme2a: KDM/ROH | (c) H3: K/R replacement K: -; K/R replacement Kme3: KDM; K/R replacement R: -; K/R replacement Rme2a: RDM | (c) H4: K/R replacement K: -; K/R replacement Kme3: -; K/R replacement R: -; K/R replacement Rme2a: RDM DOUBTS OF THE COPYIST ABOUT THIS PICTURE: Panel c: the table cells are qualitative activity classes (KDM, RDM, ROH, -) for peptide variants, not numbers; it is uncertain whether they count as results. / Panel b: the bar chart prints no values beside the bars, so nothing was taken from it.
MS-based screening assays with peptides and calf thymus histones were as reported; see Supplementary Table 6 for conditions. Time course assays were based on reported procedures. In brief, equal volumes of the enzyme and substrate solutions were combined to initiate the reaction; 10 µL of 2% (v/v) formic acid (HCOOH) in ddH2O or 100% methanol was added to 10 µL of the reaction mixture to quench reactions at different time points. Unless otherwise stated, time course assays were carried out in triplicate. In some cases, LC–MS was used instead of MALDI-TOF MS to avoid a MALDI matrix induced artefact with the hydroxylated product (Supplementary Fig. 16).
Supplementary Figure 10 KDM, RDM and hydroxylation (+16 Da) activities of KDM4E are sequence and context dependent. Representative MALDI–TOF or LC –MS spectra for incubation of KDM4E with: (a) H 2 a( 1–20) w it h a C -terminal carboxylic acid (indicated by -OH ) , (b) H2 a( 1–20 )R2 0A, and (c) H2 a( 1–20 )R2 0K […]
and (p) H4 (1 –21)R3Kme3 showing no mass shift s; Charge st at e of labelled ions: [M + H] 5+ for (a), (c–e), and (g), and [MH] + for (b), (f) a nd (h–p). *L ow le v e l MA L D I–TOF MS peaks indicating ~10% product formation. n = 3 (independent assays). Y-axis: relative abundance (%). See Supplem ent ary T able 6 for assay condit ions.
See Figure 3b for specific activities of H2a peptide panel and Figure 3c for summary of K/R subst it ut ions of wild type H2a, H3 and H4 sequences. The –14 Da peak indicated in (f) a n d (h) is due to a MALDI–T O F MS derived modification – se e Supplementary Figure 16.
[ E nz ym e] [Peptide] [2OG] [Ascorbate] [(NH4)2F e(S O4)2] [TCEP] Buffer pH7.5 Enzyme Cognate substrate (mM) (mM) (mM) (mM) (mM) (mM) [HE PE S]
Supplementary Table 6 Summary of MS assay conditions for substrate screening. These conditions enabled efficient turnover of established substrates. […]

| −14 Da mass shift (demethylation) | +16 Da mass shift (hydroxylation) | Substance |
| --- | --- | --- |
| multiple |  | AR T KQ T AR K[ me 3] ST GGKAPR KQ L A [H3(1–21)K9me3, reference compound] |
| multiple −14 Da mass | +16 Da mass | Ac - SGR [ me 2a ] GKQ GGKAR AKAKT R SSR [H2a(1–20)R3me2a, H2a(1–20)R3me2a without a biotin tag] |
